Laboratory results reported in the supplement of paper PMC8728848.
The list shows a part of the results.

Key:
Experiment in all cases: glycan array binding signal (z-score within array); higher = stronger binding
Details in all cases: glycan notation: IUPAC condensed, linker removed
[1] = molecular target: Gal(b1-3)GalNAc(a1-3)[Fuc(a1-2)]Gal(b1-4)GlcNAc
How it was run: (§1)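 Arrays were curated from the Consortium for Functional Glycomics database, 3228 in total, and kept only where the protein sequence was available. Binding is expressed as a within-array Z-score. This score was averaged across arrays of the same protein sequence at different concentrations or buffers and across linkers, and negative values can be read as non-binding.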

[2] = molecular target: Gal(b1-3)GalNAc(b1-3)Gal(a1-4)Gal(b1-4)Glc
How it was run: as §1

[3] = molecular target: Gal(b1-3)GalNAc(b1-4)Gal(b1-4)Glc
How it was run: as §1

[4] = molecular target: Gal(b1-3)GalNAc(b1-4)[Neu5Ac(a2-3)]Gal(b1-4)Glc
How it was run: as §1

[5] = molecular target: Gal(b1-3)GlcNAc
How it was run: as §1

[6] = molecular target: Gal(b1-3)GlcNAc(a1-6)Gal(b1-4)GlcNAc
How it was run: as §1

[7] = molecular target: Gal(b1-3)GlcNAc(b1-2)Man(a1-3)[Gal(b1-3)GlcNAc(b1-2)Man(a1-6)]Man(b1-4)GlcNAc(b1-4)GlcNAc
How it was run: as §1

[8] = molecular target: Gal(b1-3)GlcNAc(b1-2)Man(a1-3)[Gal(b1-3)GlcNAc(b1-2)Man(a1-6)]Man(b1-4)GlcNAc(b1-4)[Fuc(a1-6)]GlcNAc
How it was run: as §1

[9] = molecular target: Gal(b1-3)GlcNAc(b1-3)Gal(b1-3)GlcNAc
How it was run: as §1

[10] = molecular target: Gal(b1-3)GlcNAc(b1-3)Gal(b1-4)Glc
How it was run: as §1

[11] = molecular target: Gal(b1-3)GlcNAc(b1-3)Gal(b1-4)GlcNAc
How it was run: as §1

[12] = molecular target: Gal(b1-3)GlcNAc(b1-3)Gal(b1-4)GlcNAc(b1-6)[Gal(b1-3)GlcNAc(b1-3)]Gal(b1-4)Glc
How it was run: as §1

[13] = molecular target: Gal(b1-3)GlcNAc(b1-3)Gal(b1-4)[Fuc(a1-3)]GlcNAc(b1-6)[Gal(b1-3)GlcNAc(b1-3)]Gal(b1-4)Glc
How it was run: as §1

[14] = molecular target: Gal(b1-3)GlcNAc(b1-3)GalNAc
How it was run: as §1

[15] = molecular target: Gal(b1-3)GlcNAc(b1-6)Gal(b1-4)GlcNAc
How it was run: as §1

[16] = molecular target: Gal(b1-3)[Fuc(a1-4)]GlcNAc
How it was run: as §1

[17] = molecular target: Gal(b1-3)[Fuc(a1-4)]GlcNAc(b1-2)Man(a1-3)[Gal(b1-3)[Fuc(a1-4)]GlcNAc(b1-2)Man(a1-6)]Man(b1-4)GlcNAc(b1-4)GlcNAc
How it was run: as §1

[18] = molecular target: Gal(b1-3)[Fuc(a1-4)]GlcNAc(b1-2)Man(a1-3)[Gal(b1-3)[Fuc(a1-4)]GlcNAc(b1-2)Man(a1-6)]Man(b1-4)GlcNAc(b1-4)[Fuc(a1-6)]GlcNAc
How it was run: as §1

[19] = molecular target: Gal(b1-3)[Fuc(a1-4)]GlcNAc(b1-3)Gal(b1-3)[Fuc(a1-4)]GlcNAc
How it was run: as §1

[20] = molecular target: Gal(b1-3)[Fuc(a1-4)]GlcNAc(b1-3)Gal(b1-4)GlcNAc
How it was run: as §1

[21] = molecular target: Gal(b1-3)[Fuc(a1-4)]GlcNAc(b1-3)Gal(b1-4)[Fuc(a1-3)]GlcNAc
How it was run: as §1

[22] = molecular target: Gal(b1-3)[GlcNAc(b1-6)]GalNAc
How it was run: as §1

[23] = molecular target: Gal(b1-3)[Neu5Ac(a2-6)]GalNAc
How it was run: as §1

[24] = molecular target: Gal(b1-3)[Neu5Ac(a2-6)]GlcNAc(b1-6)Gal(b1-4)Glc
How it was run: as §1

[25] = molecular target: Gal(b1-3)[Neu5Ac(b2-6)]GalNAc
How it was run: as §1

[26] = molecular target: Gal(b1-4)GalNAc(a1-3)[Fuc(a1-2)]Gal(b1-4)GlcNAc
How it was run: as §1

[27] = molecular target: Gal(b1-4)GalNAc(b1-3)[Fuc(a1-2)]Gal(b1-4)GlcNAc
How it was run: as §1

[28] = molecular target: Gal(b1-4)Glc
How it was run: as §1

[29] = molecular target: Gal(b1-4)Glc6S
How it was run: as §1

[30] = molecular target: Gal(b1-4)GlcNAc
How it was run: as §1

B1: GH98CBM51-1 (Streptococcus pneumoniae) (protein)
chain: MTYLSDMDWSSATHGDIDKTKTVQKDAPFTTGNKGEHTKISLLTSDDKVKYFDKGIGTVADSPSVISYDISGQGFEKFETYIGIDQSANSSRSDHAVVDRIEIEIDGKVVYSSSVTNPEGFRYNTQAQFISVTIPQNAKKISLKSFAGEHTWGDEVVFADAKLIKTVST
glycan array binding signal (z-score) [1]: -0.163
glycan array binding signal (z-score) [2]: -0.191
glycan array binding signal (z-score) [3]: -0.191
glycan array binding signal (z-score) [4]: -0.188
glycan array binding signal (z-score) [5]: -0.188
glycan array binding signal (z-score) [6]: -0.19
glycan array binding signal (z-score) [7]: -0.188
glycan array binding signal (z-score) [8]: -0.188
glycan array binding signal (z-score) [9]: -0.19
glycan array binding signal (z-score) [10]: -0.189
glycan array binding signal (z-score) [11]: -0.19
glycan array binding signal (z-score) [12]: -0.185
glycan array binding signal (z-score) [13]: -0.191
glycan array binding signal (z-score) [14]: -0.187
glycan array binding signal (z-score) [15]: -0.184
glycan array binding signal (z-score) [16]: -0.189
glycan array binding signal (z-score) [17]: -0.172
glycan array binding signal (z-score) [18]: -0.187
glycan array binding signal (z-score) [19]: -0.19
glycan array binding signal (z-score) [20]: -0.187
glycan array binding signal (z-score) [21]: -0.189
glycan array binding signal (z-score) [22]: -0.183
glycan array binding signal (z-score) [23]: -0.193
glycan array binding signal (z-score) [24]: -0.188
glycan array binding signal (z-score) [25]: -0.189
glycan array binding signal (z-score) [26]: -0.188
glycan array binding signal (z-score) [27]: -0.188
glycan array binding signal (z-score) [28]: -0.189
glycan array binding signal (z-score) [29]: -0.186
glycan array binding signal (z-score) [30]: -0.188
